This note sets out measurements from US20200002426A1 (published 2020).

Several values for one entry are separate records, joined by “and”; a condition that tells them apart may be missing. Equal values may be shown once.

The assay addresses huTGF-β1 (human, UniProt P01137 part only). In words: ELISA; bridging ELISA, coated huTGF-β1, detected with biotinylated huVEGF165. A general note: An ELISA detects its analyte on a solid surface through an enzyme-linked reagent.

Chain of huTGF-β1 (P01137 279-390): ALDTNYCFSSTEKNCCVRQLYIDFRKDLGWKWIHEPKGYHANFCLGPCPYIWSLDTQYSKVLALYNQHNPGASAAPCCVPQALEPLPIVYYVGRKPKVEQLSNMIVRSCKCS

B1: Bi-A1B-1 (bispecific antibody)
heavy: EVQLVQSGGGVVQPGGSLRLSCAASGYTFTNYGMNWVRQAPGKGLEWVGWINTYTGEPTYAADFKRRFTFSLDTSKSTAYLQMNSLRAEDTAVYYCAKYPHYYGSSHWYFDVWGQGTLVTVSSASTKGPSVFPLAPSSKSTSGGTAALGCLVKDYFPEPVTVSWNSGALTSGVHTFPAVLQSSGLYSLSSVVTVPSSSLGTQTYICNVNHKPSNTKVDKRV[human IgG1 Fc left out]GGGGSGGGGSGGGGSGGGGSGIPPHVQKSVNNDMIVTDNNGAVKFPQLCKFCDVRFSTCDNQKSCMSNCSITSICEKPQEVCVAVWRKNDENITLETVCHDPKLPYHDFILEDAASPKCIMKEKKKPGETFFMCSCSSDECNDNIIFSEEYNTSNPD
light: DIQMTQSPSSLSASVGDRVTITCSASQDISNYLNWYQQKPGKAPKVLIYFTSSLHSGVPSRFSGSGSGTDFTLTISSLQPEDFATYYCQQYSTVPWTFGQGTKVEIKRTVAAPSVFIFPPSDEQLKSGTASVVCLLNNFYPREAKVQWKVDNALQSGNSQESVTEQDSKDSTYSLSSTLTLSKADYEKHKVYACEVTHQGLSSPVTKSFNRGEC
On to B1, for which the EC50 – broadly, the concentration needed to bring the measured effect to its halfway point – is 1.8 nM and 0.09 µg/mL.
